Experimental findings from publication PMC4336329 (PLoS ONE, 2015) are described below.

SMILES strings stand for the structures. Among all 310,000 compounds or so, about 2,200 (0.71%) showed an effect of 50% or more. Effects have a minus sign here. The list shows a part of the results.

In the experiment the target is human ether-à-go-go-related gene (hERG) potassium channel (human, UniProt Q12809). Description: primary screen, population patch clamp on CHO cells stably expressing hERG.
Sequence of human ether-à-go-go-related gene (hERG) potassium channel (Q12809 whole entry, looked up): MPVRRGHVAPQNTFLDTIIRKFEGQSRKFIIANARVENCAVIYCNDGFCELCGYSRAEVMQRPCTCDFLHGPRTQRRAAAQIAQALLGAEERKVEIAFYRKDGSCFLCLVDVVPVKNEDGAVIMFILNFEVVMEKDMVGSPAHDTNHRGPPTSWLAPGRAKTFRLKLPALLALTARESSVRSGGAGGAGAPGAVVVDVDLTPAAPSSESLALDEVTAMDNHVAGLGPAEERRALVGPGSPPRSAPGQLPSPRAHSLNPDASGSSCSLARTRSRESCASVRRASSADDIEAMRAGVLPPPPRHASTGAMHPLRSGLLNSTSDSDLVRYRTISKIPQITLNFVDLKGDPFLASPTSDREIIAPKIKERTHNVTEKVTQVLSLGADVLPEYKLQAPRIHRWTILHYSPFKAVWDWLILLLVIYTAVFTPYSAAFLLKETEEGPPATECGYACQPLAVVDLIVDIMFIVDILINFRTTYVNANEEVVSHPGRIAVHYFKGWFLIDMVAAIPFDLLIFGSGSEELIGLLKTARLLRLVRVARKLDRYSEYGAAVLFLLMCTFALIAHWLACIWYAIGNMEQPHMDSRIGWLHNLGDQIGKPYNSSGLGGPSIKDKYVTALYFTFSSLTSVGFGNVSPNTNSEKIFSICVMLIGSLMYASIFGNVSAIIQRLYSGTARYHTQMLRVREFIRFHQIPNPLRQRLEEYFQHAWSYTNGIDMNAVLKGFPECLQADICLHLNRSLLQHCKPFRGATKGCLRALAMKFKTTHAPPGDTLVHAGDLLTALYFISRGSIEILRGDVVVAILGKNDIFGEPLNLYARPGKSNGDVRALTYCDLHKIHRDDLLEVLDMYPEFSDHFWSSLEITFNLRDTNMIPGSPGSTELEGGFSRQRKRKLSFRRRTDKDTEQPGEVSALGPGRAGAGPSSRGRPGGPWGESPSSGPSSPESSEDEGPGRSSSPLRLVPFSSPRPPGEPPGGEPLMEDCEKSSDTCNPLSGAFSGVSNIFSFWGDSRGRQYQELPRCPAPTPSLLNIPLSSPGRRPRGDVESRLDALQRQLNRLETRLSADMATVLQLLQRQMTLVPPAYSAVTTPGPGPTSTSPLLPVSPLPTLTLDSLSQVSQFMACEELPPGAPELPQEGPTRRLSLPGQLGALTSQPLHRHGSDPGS
Consider `Clc1ccc(-c2cn3c(n2)CCC3)cc1`, for which the “hERG current change (%, negative = inhibition) at 1uM” value came out at 0.47%.

For `CCOC(=O)N1CCN(S(=O)(=O)c2ccc3c(c2)SC(C)C(=O)N3)CC1` (stereo not shown), the “hERG current change (%, negative = inhibition) at 1uM” value stood at 18.7%.

On to `COc1ccc(CC(=O)NCc2nnc(SCc3ccc(C)cc3)n2C)cc1`, for which the “hERG current change (%, negative = inhibition) at 1uM” value is 10.4%. As for `CCN(CC(=O)NCCc1ccccc1)S(=O)(=O)c1ccc(C)cc1`, the figure is -9.05%; as for `CCN(CC)S(=O)(=O)c1ccc(/C=C/C(=O)OCC(=O)N(C)C)cc1`, 11.7%; as for `COCCn1c(SCc2ccc(C(=O)OC)o2)nnc1-c1c[nH]c2ccccc12`, 8.45%. As to `O=[N+]([O-])c1ccc(N2CCN(C(=S)Nc3ccc(F)cc3F)CC2)cc1`, the “hERG current change (%, negative = inhibition) at 1uM” value came to 13.5%. Under `CCCc1[nH]nc2c1C(c1cc(OC)ccc1F)C(C#N)=C(N)O2` (stereo not shown) stands 6.14%; under `CCCNC(=O)C(Cc1ccc(OC)cc1)NC(=O)c1ccc(C#N)cc1` (stereo not shown), -21.9%; under `Cc1ccc(NC(=O)N2CCCC2C(=O)Nc2ccc3c(c2)OCCO3)cc1` (stereo not shown), 14.2%. As for `O=C(COC(=O)c1ccc(Cl)c(S(=O)(=O)N2CCCCC2)c1)NCc1ccco1`, the figure is -0.846%.

As for `CC(C)c1ccc(C(=O)NNC(=O)c2n[nH]c(=O)c3ccccc23)cc1`, the “hERG current change (%, negative = inhibition) at 1uM” value is on record as 9.08%. As for `Cc1ccc(-c2csc3nc(CN(C)Cc4ccccc4)[nH]c(=O)c23)cc1`, the figure is 20.1%.

As to `O=C(NCc1ccco1)c1cc2ccccc2o1`, the “hERG current change (%, negative = inhibition) at 1uM” value came to 8.9%.

With `CCn1c(SCC(=O)Nc2nc(C)cs2)nnc1-c1ccoc1C`, the “hERG current change (%, negative = inhibition) at 1uM” value is given as 10.4%. As for `Cc1ccn2c(NC3CCCC3)c(-c3ccncc3)nc2c1`, the figure is 4.53%; as for `Cc1ccc(NC(=O)CNC(=O)c2ccc(C)s2)nc1`, 3.54%; as for `Cc1ccc(Oc2ncnc3sccc23)cc1`, 8.91%. Under `CCOC(=O)CSc1ncnc2c1cnn2-c1ccc(C)cc1C` stands 9.71%; under `CCOC(=O)C1(CCCc2ccccc2)CCN(C(=O)c2cc(C)nc(C)n2)CC1`, 3.56%; under `CN(C)S(=O)(=O)c1ccc(C(=O)OCCc2ccccc2)cc1`, 12.1%. Consider `CCCCNC(=O)c1onc(CSc2ccccc2)c1C(=O)NCCCC`, for which the “hERG current change (%, negative = inhibition) at 1uM” value is recorded as -4.07%.

Take `O=C(NC(=S)NC1CCCc2ccccc21)c1ccco1` (stereo not shown): the “hERG current change (%, negative = inhibition) at 1uM” value stood at 4.45%. As for `N#CC1=C(SCc2ccccc2Cl)NC(=O)C(C(N)=O)C1` (stereo not shown), the figure is 11.3%; as for `CN(C)c1ccc(S(=O)(=O)N2CCCCC2)cc1NC(=O)CN1C(=O)NC(C)(c2ccccc2)C1=O` (stereo not shown), 18.2%. As to `COC(C/C=C/[C@H](O)[C@@H](C)OCc1ccccc1)OC`, the “hERG current change (%, negative = inhibition) at 1uM” value was determined as 13.6%. As for `CC(=O)Nc1ccc(-c2csc(NC(=O)C3CSC4(C)CCC(=O)N34)n2)cc1` (stereo not shown), the figure is 11.9%. Under `O=C(Cc1ccc(Cl)c(Cl)c1)Nc1ccc(S(=O)(=O)Nc2ncccn2)cc1` stands 13.3%; under `CC(C)n1ncc2c(C(=O)N3CCN(Cc4ccc(Br)s4)CC3)cc(C3CC3)nc21`, 3.17%; under `COc1ccccc1NC(=S)NC(=O)c1ccc(Cn2cc(Br)cn2)cc1`, 1.66%. Take `O=c1[nH]c(CN2CCc3ccccc3C2)nc2ccccc12`: the “hERG current change (%, negative = inhibition) at 1uM” value amounted to 6.21%. As for `Cc1ccccc1N=C1NC(=O)/C(=C/c2cccn2C)S1`, the figure is 11.9%. Take `Cc1ccc(C(=O)n2c(-c3ccccc3)cnc2SCC(=O)Nc2ccccc2)cc1`: the “hERG current change (%, negative = inhibition) at 1uM” value came to 12.8%. For the compound `Clc1cccc(N2CCN(Cc3nnc(-c4ccccc4)o3)CC2)c1`, the “hERG current change (%, negative = inhibition) at 1uM” value turned out to be 6.03%. As for `O=C(Nc1cccc(-c2cccc(Cl)c2)c1)C1CCN(Cc2ccc(CO)o2)CC1`, the “hERG current change (%, negative = inhibition) at 1uM” value is listed as -11.2%. Under `CC1(C)Cc2c(c(N3CCOCC3)nc3sc(C(=O)Nc4ccc(Cl)cc4)c(N)c23)CO1` stands 12.8%; under `O=C(Cc1nc2ccccc2[nH]c1=O)c1ccc(Cl)cc1`, 11.1%.

Regarding `CCn1c(N)c(Br)c(=O)[nH]c1=O`, the “hERG current change (%, negative = inhibition) at 1uM” value was 9.81%. As for `COc1cc(OC)c(OC)cc1CN1CCCC(C(=O)c2ccc3c(c2)OCO3)C1` (stereo not shown), the figure is -27.7%; as for `CSc1cccc(CN2CCC(Oc3ccc(C(=O)N4CCCCC4)cc3)CC2)c1`, -2.43%; as for `COc1cccc(COc2cc3ccccc3nc2C)c1`, 13.3%. Consider `Cc1cc(NC(=O)CCN2CCC(C(N)=O)CC2)ccc1Br`, for which the “hERG current change (%, negative = inhibition) at 1uM” value was determined as 4.3%. As to `CC/C(=N\NC(=O)c1ccc(-c2ccccc2)cc1)C12CC3CC(CC(C3)C1)C2`, the “hERG current change (%, negative = inhibition) at 1uM” value turned out to be 5.79%. Under `O=C(NCCc1ccccc1)c1ccc2c(c1)S(=O)(=O)c1ccccc1C2=O` stands 2.35%; under `O=C(CSc1nc2ccccc2[nH]1)Nc1cccc(S(=O)(=O)N2CCOCC2)c1`, -0.172%. Under `COc1ccc(CCNC(=O)c2ccc3ccccc3n2)cc1` stands 14%. With `CCO[C@H]1OC(C(=O)N2CCN(Cc3ccc4c(c3)OCO4)CC2)=C[C@@H](C2CC2)[C@@H]1CCCO`, the “hERG current change (%, negative = inhibition) at 1uM” value is reported as 6.84%. Regarding `COC(=O)c1c(-c2ccc(OC)cc2)sc2ccccc12`, the “hERG current change (%, negative = inhibition) at 1uM” value is recorded as 5.17%.

As for `FC(F)(F)c1ccc(N/N=C/c2cccnc2)nc1`, the “hERG current change (%, negative = inhibition) at 1uM” value came to 9.78%. Under `COc1ccccc1/C=N/NC(=O)c1ccc(NC(=O)c2cccc([N+](=O)[O-])c2)cc1` stands 13.4%; under `O=C(Cc1cccs1)Nc1nc(-c2ccc(F)cc2F)cs1`, 4.96%; under `CN(C)c1ccc(C=C2C(=O)NC(=O)NC2=O)cc1[N+](=O)[O-]`, 18.5%. Under `Cc1cc(=O)oc2c3c(cc(OCC(=O)NCCN4CCOCC4)c12)OC(C)(C)CC3` stands 12.8%; under `COc1ccccc1CNc1nc(SC)ncc1CO`, -2.02%. As for `CC(=O)N(Cc1ccc(Br)cc1)c1ccccc1C(=O)O`, the figure is 6.95%; as for `Cc1ccc(S(=O)(=O)N(C)CC(=O)NC2CCCC2)cc1`, 2.2%. Turning to `CCCCNCC(=O)Nc1ccc(NC(=O)CNCCCC)cc1`, the “hERG current change (%, negative = inhibition) at 1uM” value was 16.2%. `O=C1C2C3C=CC([C@@H]2C(=O)N1Cc1cccnc1)C31CC1` (stereo partly shown): the “hERG current change (%, negative = inhibition) at 1uM” value is 9.48%.

As to `CCc1ccc(-n2c(C)cc(/C=N/NC(=O)c3ccncc3)c2C)cc1`, the “hERG current change (%, negative = inhibition) at 1uM” value worked out at 6.87%. As for `Cc1ccc(S(=O)(=O)N2CCCN(C(=O)OC(C)(C)C)CC2)cc1`, the figure is 14.8%; as for `CC(O)CNc1ccc([N+](=O)[O-])c2cccnc12` (stereo not shown), 4.21%; as for `CCCCc1nnc(NC(=O)CCN2C(=O)C3CC=CCC3C2=O)s1` (stereo not shown), 11.3%.

For the compound `O=C1COc2ccc(C(=O)COC(=O)c3c(F)cccc3Cl)cc2N1`, the “hERG current change (%, negative = inhibition) at 1uM” value came to 1.5%.

Take `Nc1cc(=O)[nH]n1C1CCN(c2ccccc2)CC1`: the “hERG current change (%, negative = inhibition) at 1uM” value is listed as 16.5%. For `CCC(Sc1ncccc1C(=O)OC(C)C)C(=O)NCc1ccco1` (stereo not shown), the “hERG current change (%, negative = inhibition) at 1uM” value is recorded as -0.195%. In the case of `CC(=O)Nc1cccc(NC(=O)c2ccc([N+](=O)[O-])cc2Cl)c1`, the “hERG current change (%, negative = inhibition) at 1uM” value was 8.24%.

On to `CC(C)c1ccc(NC(=O)C2CC(=O)N(C(C)C)C2)cc1` (stereo not shown), for which the “hERG current change (%, negative = inhibition) at 1uM” value was 11.3%. Under `Cc1cc(C(=O)NCc2cccnc2)no1` stands 3.74%; under `C[C@]1(C2CCCC2)Cc2cc(OCC(=O)O)c(Cl)c(Cl)c2C1=O`, 3.75%; under `CC1CC(C)CN(C(=O)COC(=O)c2nn(C)c(=O)c3ccccc23)C1` (stereo not shown), 2.99%. As for `COc1cccc(NC(=O)CN(C)C(=O)CC2CC3CCC2C3)c1` (stereo not shown), the figure is 4.58%; as for `Cc1cc2ccccc2n1CCNC(=O)c1ccccc1`, 12.1%. For the compound `CCOC(=O)c1ccc(NC(=O)Nn2cnnc2)cc1`, the “hERG current change (%, negative = inhibition) at 1uM” value is given as 20.2%. Take `CCOc1ccc(NC(=O)CC2C(=O)N(c3ccc(OC)cc3)C(=O)N2CCc2ccc(OC)c(OC)c2)cc1` (stereo not shown): the “hERG current change (%, negative = inhibition) at 1uM” value is listed as 2.15%. As for `Cc1oc(-c2cccs2)nc1CSCC(=O)NC1CC1`, the figure is 3.5%; as for `CN(Cc1ccc(Cl)cc1Cl)C(=O)c1cc(=O)c2ccccc2o1`, -6.55%; as for `COc1cc([N+](=O)[O-])cc(/C=N/NC(=O)Cn2nccc2C)c1O`, 3.73%. Under `Cc1sc(NC(=O)C2=COCCO2)c(C#N)c1C` stands 12.8%.

For the compound `CC12CCC(c3c(C(=O)N4CCOCC4)nn(-c4ccccc4)c31)C2(C)C` (stereo not shown), the “hERG current change (%, negative = inhibition) at 1uM” value is -5.53%. As for `CCC(C(=O)OC)n1cnc2scc(-c3ccc(C)c(C)c3)c2c1=O` (stereo not shown), the figure is 10.1%; as for `COC(=O)CCC(=O)Nc1ccc(N=Nc2ccccc2)cc1`, -4.44%. Turning to `Cc1csc(NC(=O)c2c(-c3ccccc3)noc2C)n1`, the “hERG current change (%, negative = inhibition) at 1uM” value is 17%. As for `Cc1nnc(C)n1/N=C/C=C/c1ccccc1`, the figure is 11.5%; as for `CCS(=O)(=O)N1N=C(c2cccc(NS(C)(=O)=O)c2)CC1c1cccs1` (stereo not shown), 8.06%.

As for `COc1ccc(CCC(=O)OCC(=O)Nc2c(C)nn(-c3ccccc3)c2C)cc1`, the “hERG current change (%, negative = inhibition) at 1uM” value was found to be 5.46%. On to `Cl.Oc1cc2c(cc1O)C(c1ccccc1)CNCC2` (stereo not shown), for which the “hERG current change (%, negative = inhibition) at 1uM” value was found to be 7.43%.

As to `COc1ccc(NC(=O)c2nnn(Cc3ccc(SC)cc3)c2N)c(OC)c1`, the “hERG current change (%, negative = inhibition) at 1uM” value stood at 15%. In the case of `Cc1cc(C)n2nc[n+](C)c2n1.[I-]`, the “hERG current change (%, negative = inhibition) at 1uM” value is recorded as 13.2%. For the compound `COc1ccc(/C=N/c2oc(C)c(C)c2C#N)c(OC)c1`, the “hERG current change (%, negative = inhibition) at 1uM” value worked out at 15%. In the case of `COc1ccccc1N(C(=O)CNC(=O)c1ccco1)C(C(=O)NC1CCCCC1)c1ccncc1` (stereo not shown), the “hERG current change (%, negative = inhibition) at 1uM” value is on record as 25.8%. `COc1ccc(-c2cc(C(=O)N/N=C/c3sccc3C)c3ccccc3n2)c(OC)c1`: the “hERG current change (%, negative = inhibition) at 1uM” value is recorded as 5.99%.
